According to PubChem BioAssay AID588855 (National Center for Advancing Translational Sciences (NCATS), 2011):
“And” between values parts separate entries of the source, which are not always exact repeats. Equal entries are not always repeated. Out of some 410,000 compounds screened, about 5,000 (1.2%) were called active. Inconclusive means that the source gave no clear call. Such entries were picked first, then a sample of the others. The call rests on the fitted dose curve; in most records, active means well fitted inhibition curve with a large enough effect; inconclusive means small, poorly fitted or top-dose-only effect; inactive means no such curve, though single readings can be large or run the other way. Potencies of inconclusive entries are doubtful fits and often do not repeat.

Assay: qHTS for Inhibitors of TGF-b; further: nearly all actives have a fitted effect of over 65% in size
Conditions: HepG2 CAGA-GFP TGF-b/SMAD3 reporter, GFP fluorescence, 18 h, TGF-beta stimulated, 500 pg/mL final; series mostly up to 46.1 µM; activity, negative = inhibition: at the top concentration
Outline: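 HEPG2 CAGA-GFP, 1000 cells/well; 2 h settle, 37 C; cpd via pin tool; TGF-b 500 pg/mL final; 18 h, 37 C; GFP imaging ex488/em500-530; %Activity normalised to -TGF-b and +DMSO controls; CRC fit, curve class.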
On the % scale 0 is the no-effect control and ±100 the full control effect; potency means the concentration at half of the fitted maximal effect; tags describe the fitted curve by direction and shape.

SMILES	Potency	activity, negative = inhibition
COc1ccc(-c2nc(SCC(=O)NC3CCCC3)c(-c3ccc(C)cc3)[nH]2)cc1OC	inconclusive: 15.8 µM [inhibitor, single point]	–
CCOc1ccc(NC(=O)C(=O)NCC(c2cccnc2)N2CCc3ccccc32)cc1 (stereo unspecified)	inconclusive: 2.51 µM [inhibitor, partial curve, poor fit]	–
O=C(Nc1nc(=S)ss1)c1c(F)cccc1F	inconclusive: 0.355 µM [inhibitor, full curve, poor fit]	–
COc1ccc(N(Cc2cccs2)C(=O)Nc2cccc(Cl)c2)cc1	inconclusive: 28.2 µM [inhibitor, single point]	–
CCCn1c(=O)c2c(nc3n2CCCN3CCc2ccc(OC)c(OC)c2)n(C)c1=O	–	inactive: -2.3%
N#CC1(NC(=O)COC(=O)c2cc([N+](=O)[O-])ccc2N2CCOCC2)CCCCC1	inconclusive: 12.6 µM [inhibitor, single point]	–
Cc1noc(C)c1CSc1nc2ccccc2nc1NS(=O)(=O)c1ccc(Cl)cc1	active: 7.94 µM	–
COC(=O)c1ccccc1NC(=S)N1CCN(c2ccccn2)CC1	–	inactive: -0.304%
C=C[C@@H]1c2ccccc2N(S(=O)(=O)c2ccc(C)cc2)[C@H](c2ccccc2C(F)(F)F)C1(C#N)C#N	inconclusive: 6.31 µM [inhibitor, single point] and inconclusive: 1 µM [inhibitor, partial curve, poor fit]	–
Cc1ccc(C)c(NC(=O)CSc2nc3c(c(=O)n2C)SC(C)C3)c1 (stereo unspecified)	–	inactive: -1.66%
CCCCn1c(/N=C/c2c[nH]c3ccccc23)nc2ccccc21	inconclusive: 11.2 µM [inhibitor, partial curve, poor fit]	–
Cc1ccc(C2=NS(=O)(=O)N(C)C(C(=O)N3CCCCC3)=C2)cc1	–	inactive: 4.96%
Cc1ccccc1C(=O)NCCc1sc(-c2ccc(Cl)cc2)nc1C	inconclusive: 3.98 µM [inhibitor, partial curve, poor fit]	–
O=C(CSc1ccc(-c2ccccn2)nn1)NCc1ccc(F)cc1	inconclusive: 7.08 µM [inhibitor, partial curve]	–
Nc1nc(CCl)nc(Nc2ccc3ccccc3c2)n1	inconclusive: 28.2 µM [inhibitor, single point]	–
CCOc1ccc(S(=O)(=O)N(C)c2ccc(OCC(=O)NCc3ccco3)cc2)cc1	inconclusive: 35.5 µM [inhibitor, single point]	–
CCCCNC(=O)CSc1nc2cc3c(cc2c(=O)n1CCCCCC(=O)NCc1ccc(OC)cc1)OCO3	–	inactive: 26.1%
COc1cc(C(O)CO)ccc1OS(=O)(=O)O (stereo unspecified)	–	inactive: -14.7%
CC(C)c1c(O)ccc2c1CC[C@H]1C(C)(C)CCC[C@]21C	inconclusive: 35.5 µM [inhibitor, single point]	–
COc1ccc(OCCN(C)Cc2ccccc2)cc1	–	inactive: -23.6%
CCOc1cc(C(=S)N2CCN(C)CC2)ccc1OCC(=O)N1CCCC1	inconclusive: 7.08 µM [inhibitor, partial curve, poor fit]	–
CC1(C(=O)Nc2ccccc2Br)CCN1C(=O)Cc1ccccc1Cl (stereo unspecified)	–	inactive: 7.2%

SMILES	Potency	activity, negative = inhibition
CS(=O)(=O)c1ccc(NC(=O)c2cccc(S(=O)(=O)N3CCN(Cc4ccccc4)CC3)c2)cc1	inconclusive: 2.24 µM [inhibitor, single point]	–
O=C(CSc1ccc(-c2ccccn2)nn1)Nc1cccc(F)c1	inconclusive: 14.1 µM [inhibitor, partial curve, poor fit]	–
Cc1ccc(S(=O)(=O)N2CCN(Cc3cc(C(C)(C)C)ccc3O)CC2)cc1	inconclusive: 11.2 µM [inhibitor, partial curve]	–
O=C(CN1CCN(C(=O)c2ccco2)CC1)Nc1c2c(nc3c1CCC3)CCCC2	–	inactive: -10.2%
COC(=O)C1(Cc2cc(-c3ccc([N+](=O)[O-])cc3)no2)CCN(C(=O)OC(C)(C)C)CC1	inconclusive: 17.8 µM [inhibitor, single point]	–
O=C(NCC(=O)N1CCN(S(=O)(=O)c2ccccc2)CC1)c1ccc(Br)o1	inconclusive: 25.1 µM [inhibitor, single point]	–
CCc1cccc(C)c1NC(=O)COC(=O)CSCc1ccccc1	–	inactive: 22.8%
Cc1ccccc1OCCC(=O)N(CC(=O)Nc1ccccc1C(F)(F)F)Cc1ccco1	–	inactive: 1.65%
Cc1c(C(=O)Nc2cccc(C(F)(F)F)c2)oc2ccc(S(=O)(=O)N3CCOCC3)cc12	–	inactive: 0.748%
COC(=O)c1sc(-c2ccc(C(C)(C)C)cc2)cc1NC(=O)c1ccccc1C(=O)O	inconclusive: 20 µM [inhibitor, single point]	–
O=C(CCl)N(c1ccccc1)C1CCS(=O)(=O)C1 (stereo unspecified)	inconclusive: 12.6 µM [inhibitor, partial curve, poor fit]	–
COc1ccccc1N1C(=O)c2cccc3cccc(c23)C1=O	–	inactive: -13.3%
CCOC(=O)C1CCN(C(=O)c2ccc(N3CCCC3=O)cc2)CC1	inconclusive: 15.8 µM [inhibitor, single point]	–
COc1ccc2sc3ccccc3c(=O)c2c1OC	–	inactive: 0%
CCOC(=O)C1Oc2ccccc2C(c2cccc3ccccc23)=C1C(=O)OC (stereo unspecified)	inconclusive: 35.5 µM [inhibitor, single point]	–
CCCc1noc(-c2ccc(NCc3ccc(C)cc3)c([N+](=O)[O-])c2)n1	inconclusive: 0.112 µM [inhibitor, full curve, poor fit]	–
Cc1oc2c(cc(NS(=O)(=O)c3ccc(Cl)cc3)c3ccccc32)c1C(=O)OCc1ccccc1	inconclusive: 1.41 µM [inhibitor, full curve, poor fit]	–
COc1ccc(C(=O)Nc2sc3c(c2C(=O)O)CC(C)(C)OC3)cc1	–	inactive: -17.2%
COc1ccc(-c2cn3c(n2)sc2cc(C(=O)NCc4cccc(F)c4)ccc23)cc1	–	inactive: -7.34%
Cc1ccc(Nc2nnc(SCC(=O)Nc3cccc(S(=O)(=O)N4CCCCC4)c3)s2)cc1	inconclusive: 25.1 µM [inhibitor, single point]	–
CCn1nnnc1SCC(=O)Nc1ccc(OCc2ccccc2)cc1	inconclusive: 35.5 µM [inhibitor, single point]	–
CSCC[C@H](NC(=O)COc1ccc(Cl)cc1)C(=O)N1CCC2(CC1)NCCc1[nH]cnc12	–	inactive: 7.07%

SMILES	Potency	activity, negative = inhibition
CC(C)CC(NS(=O)(=O)c1ccc2[nH]c(=O)c(=O)[nH]c2c1)C(=O)O (stereo unspecified)	inconclusive: 5.62 µM [inhibitor, single point]	–
Cc1ccc(C(=O)c2cn(Cc3ccccc3C)c3nc(C)ccc3c2=O)cc1	inconclusive: 35.5 µM [inhibitor, single point]	–
COc1cccc(/C=N/n2c(-c3cc(C)[nH]n3)n[nH]c2=S)c1	inconclusive: 2.82 µM [inhibitor, full curve, poor fit]	–
COc1cccc(NC(=O)NC2CCN(Cc3nnnn3Cc3ccc4c(c3)OCO4)CC2)c1	inconclusive: 7.94 µM [inhibitor, partial curve, poor fit]	–
CCOc1ccc(/C=N/NS(=O)(=O)c2ccc(C)cc2)cc1OC	–	inactive: -9.29%
CCCCCCn1c(SCC(=O)Nc2cc(C)on2)nc2ccccc2c1=O	–	inactive: -9.14%
CCCOc1ccc(C2c3c(-c4ccccc4O)n[nH]c3C(=O)N2Cc2cccnc2)cc1 (stereo unspecified)	inconclusive: 35.5 µM [inhibitor, single point]	–
COC(=O)C1=CN(CCOC23CC4CC(CC(C4)C2)C3)C=C(C(=O)OC)C1c1ccsc1	inconclusive: 10 µM [inhibitor, partial curve, poor fit]	–
CCc1nc(N)nc(N)c1-c1ccc(NCCN)c([N+](=O)[O-])c1	inconclusive: 3.98 µM [inhibitor, full curve, poor fit]	–
COc1ccccc1-c1cc(C(F)(F)F)nc(S(=O)(=O)CCCC(=O)Nc2cc(C)on2)n1	–	inactive: -6.13%
Cc1ccc(NC(=S)N(CCN(C)C)C(C)c2ccco2)cc1Cl (stereo unspecified)	active: 17.8 µM	–
CCC(=O)Nc1ccc(CC)cc1-c1nc2ccccc2n(CC(=O)Nc2ccccc2C)c1=O	–	inactive: 61.4%
Cc1ccc(NC(=O)Cn2c(=O)oc3cc(S(=O)(=O)N4CCCCC4)ccc32)c(C)c1	inconclusive: 5.62 µM [inhibitor, single point]	–
CCOC(=O)c1cc(-c2ccccc2)sc1NC(=O)COC(=O)c1cccc(S(N)(=O)=O)c1	inconclusive: 10 µM [inhibitor, partial curve, poor fit]	–
CC(C)OC(=O)c1ccc(NCc2cc(O)ccc2O)cc1Cl	inconclusive: 12.6 µM [inhibitor, single point]	–
COC(=O)c1ccc(COc2ccccc2/C=C(\C#N)C(=O)Nc2c(C)cc(C)cc2C)cc1	inconclusive: 12.6 µM [inhibitor, single point]	–
Cc1ccc(C2=NOC(C)(c3sc(-c4ccc(Cl)cc4)nc3C)C2)cc1 (stereo unspecified)	–	inactive: -48.4%
CNS(=O)(=O)c1cnccc1N1CCN(c2cccc(C(F)(F)F)c2)CC1	inconclusive: 17.8 µM [inhibitor, single point]	–
CN(C[C@H](Cc1ccccc1)N(C[C@H](CC1CCCCC1)N(CCc1ccccc1)N=O)N=O)N=O	inconclusive: 0.447 µM [inhibitor, full curve, poor fit]	–
Cc1ccc2oc(=O)n(CC(=O)OCCC(C)C)c2c1	–	inactive: -2.72%
O=[N+]([O-])c1cccc(S(=O)(=O)Nc2ccc(S(=O)(=O)Nc3nccs3)cc2)c1	inconclusive: 11.2 µM [inhibitor, partial curve]	–
C=CCC[C@@H](Cc1ccc(F)cc1)C(=O)OC[C@@H]1CCCN1C(=O)[C@H](CC=C)CC(=O)N[C@H](CO)Cc1ccccc1	active: 11.2 µM	–
